Laboratory results published in the supplement of paper PMC3334620.
The full ranking holds about 33,000 sequences; the median of “E-score (-0.5 to 0.5)” is about -0.012, and the highest 2% start at about 0.29. Some of the results follow.

These sequences were tested against T1, Ybr033w (UniProt P38073) (assay: PBM E-score (8-mer binding enrichment) (E-score (-0.5 to 0.5)); higher = stronger / more preferred TF binding; most listed sequences are background and not binding sites). Conditions: protein concentration: 200 nM; construct: GST-full length.
T1 sequence: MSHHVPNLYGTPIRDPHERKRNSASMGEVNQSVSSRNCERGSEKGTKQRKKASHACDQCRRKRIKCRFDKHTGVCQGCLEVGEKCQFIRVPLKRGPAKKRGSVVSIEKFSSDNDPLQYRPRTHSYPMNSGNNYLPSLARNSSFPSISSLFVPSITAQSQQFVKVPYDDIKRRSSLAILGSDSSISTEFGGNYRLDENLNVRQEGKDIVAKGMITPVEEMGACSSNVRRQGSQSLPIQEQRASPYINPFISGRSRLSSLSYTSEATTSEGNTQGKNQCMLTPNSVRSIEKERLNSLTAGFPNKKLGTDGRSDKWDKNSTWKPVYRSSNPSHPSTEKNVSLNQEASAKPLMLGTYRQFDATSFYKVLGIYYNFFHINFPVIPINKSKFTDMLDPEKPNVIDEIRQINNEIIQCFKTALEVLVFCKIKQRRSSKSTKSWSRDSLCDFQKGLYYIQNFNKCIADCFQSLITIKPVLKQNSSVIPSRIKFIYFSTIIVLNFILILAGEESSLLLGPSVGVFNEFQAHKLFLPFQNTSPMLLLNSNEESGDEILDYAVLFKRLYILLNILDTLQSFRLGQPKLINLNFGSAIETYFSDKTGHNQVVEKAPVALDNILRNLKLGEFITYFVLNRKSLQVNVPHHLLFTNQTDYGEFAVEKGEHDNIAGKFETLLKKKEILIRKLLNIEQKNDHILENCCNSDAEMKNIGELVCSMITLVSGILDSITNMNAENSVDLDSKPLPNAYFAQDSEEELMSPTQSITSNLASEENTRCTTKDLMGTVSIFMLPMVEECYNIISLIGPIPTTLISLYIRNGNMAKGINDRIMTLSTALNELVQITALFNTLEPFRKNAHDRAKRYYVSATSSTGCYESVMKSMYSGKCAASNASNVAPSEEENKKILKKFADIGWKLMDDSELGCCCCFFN
In short: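 PURExpress in vitro transcription/translation supplied GST-tagged yeast transcription factors, either full-length or DNA-binding domain. Applied at about 100-200 nM to universal all-10-mer Agilent arrays double-stranded by primer extension, the bound protein was detected with fluorescent anti-GST. E-scores, modified Wilcoxon-Mann-Whitney statistics, were given by the Universal PBM Analysis Suite to ungapped eight-base words pooled with their reverse complements after masliner normalisation.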

| Sequence | PBM E-score |
| --- | --- |
| AACTGAAC | 0.0286 |
| TACAGCAA | 0.209 |
| AACCCTTA | 0.115 |
| AGGAAGGA | -0.124 |
| CATAAAAC | 0.0263 |
| CCAGCTGA | -0.0252 |
| AAATTAGG | 0.138 |
| AGGACTAC | -0.141 |
| ACCCAGAA | 0.206 |
| AATAATTC | 0.386 |
| ATCCCTGC | -0.00089 |
| ATAATGAA | 0.331 |
| GCCTCTGA | -0.22 |
| AAGAGTCC | -0.121 |
| ATTTAGGA | 0.192 |
| CAGGCACC | -0.332 |
| CTCGTCAG | -0.109 |
| ACATGCCA | -0.0644 |
| CCGCTCTC | -0.291 |
| CGCCTTGC | -0.183 |
| AGGATTTG | 0.114 |
| TGACGTAA | 5e-05 |
| CGTCTTAG | -0.218 |
| ATAGCAGG | 0.095 |
| CGCTGTAG | -0.0734 |

| Sequence | PBM E-score |
| --- | --- |
| AACTCAGG | -0.191 |
| GACCAGAC | -0.0243 |
| ACGCGGAG | -0.11 |
| CGGTCCCC | -0.297 |
| AGGAGATA | -0.00898 |
| GGGCCGTA | -0.157 |
| CACTCGAA | 0.04 |
| GGCTATCA | 0.109 |
| AGGGAGGG | -0.199 |
| AGTAGTGA | 0.118 |
| AGAGGGAT | -0.168 |
| CTCTACCA | -0.0398 |
| GCGGACAA | 0.201 |
| AGTATGCA | 0.0339 |
| AAGAGTTG | 0.125 |
| CAGAGGCG | -0.164 |
| TAGTTACA | 0.0282 |
| CAGTCTTC | -0.146 |
| AAGTGAAT | 0.239 |
| CTCGCCAG | -0.0879 |
| GTCCGGAC | 0.182 |
| CACCCGGC | -0.293 |
| AGAATGAC | -0.00516 |
| ACCAATCG | 0.00659 |
| ACCTCAGG | -0.12 |

| Sequence | PBM E-score |
| --- | --- |
| GTTCCAAC | 0.0406 |
| ACTCGCTG | -0.0449 |
| GAAGGAAC | 0.0576 |
| TGCCGCCA | -0.168 |
| AATCAGAT | 0.108 |
| AAGTCGGA | 0.00463 |
| AGCTCGAG | -0.142 |
| AACTAGAC | 0.0442 |
| CGTATACG | 0.0447 |
| GTCATATA | 0.223 |
| GAGCGCAC | -0.202 |
| ATCAGGCC | -0.0759 |
| GAATTTCC | 0.343 |
| GGATATGA | 0.0606 |
| CGGAAGAG | -0.108 |
| ACCTACGG | -0.134 |
| ACAAACTC | 0.197 |
| AAAAATAC | 0.304 |
| CTCTCGAA | 0.0225 |
| GTGAACTA | 0.163 |
| GCCCGCCC | -0.263 |
| CACAGTAA | 0.258 |
| GTTAACCA | 0.0327 |
| GAAAGTGC | -0.232 |
| GCTGAGCA | 0.0674 |

| Sequence | PBM E-score |
| --- | --- |
| GAGCGACA | -0.045 |
| CTTTAAGA | 0.109 |
| ATGGGTGG | -0.223 |
| ACGCAGAC | -0.00797 |
| ACCGTTCA | -0.0307 |
| ATGTGACG | -0.00619 |
| GTGCAAGA | 0.127 |
| ACTCACAT | 0.00706 |
| CTCGATAA | 0.178 |
| AAAAGAAC | 0.146 |
| AGACACAT | 0.0512 |
| CCCCGTCG | -0.369 |
| ACATTTGG | -0.039 |
| GCACAGAC | -0.0221 |
| CGAAGGTA | -0.00104 |
| GTAGCTGA | -0.0101 |
| ATAAAGGA | -0.0287 |
| GACCTGTA | -0.0342 |
| CCAATAAA | 0.153 |
| AGTAGCGA | 0.121 |
| AGTCCGGA | 0.165 |
| GGAAGCTA | 0.0951 |
| CTGGTTGA | -0.129 |
| CAGTATGA | 0.133 |
| ACGGCATG | -0.222 |

| Sequence | PBM E-score |
| --- | --- |
| AGACACAG | -0.0703 |
| CACCACGA | 0.101 |
| CGGTATGC | -0.207 |
| AAAATAAT | 0.319 |
| GCTTTTAA | -0.105 |
| CTAAAATC | 0.0682 |
| TGAAATAA | 0.153 |
| TACGAGAA | 0.0575 |
| CCGCATCG | -0.252 |
| TCGCGAAA | 0.078 |
| GTGGTACA | -0.0296 |
| CGCGTGAC | -0.0125 |
| AACAGGAG | -0.109 |
| ACGTTCTA | -0.0975 |
| AAGGCAAA | 0.148 |
| AGATTTCC | 0.135 |
| CGACATCC | -0.269 |
| CAACGGGA | 0.0409 |
| ACCGCTTG | -0.0102 |
| AGTAGAAT | 0.207 |
| GCCGACTA | 0.00713 |
| CTGGTCTA | -0.114 |
| CTGCGCTA | -0.0654 |
| GCCGGAGA | 0.0683 |
| CCATGACG | 0.0307 |

| Sequence | PBM E-score |
| --- | --- |
| GCCTCCAA | -0.0121 |
| AGACGAGC | -0.172 |
| CTTTATAC | 0.104 |
| CAGACTCC | -0.158 |
| ACAAGTAA | 0.0574 |
| CGCCAGAC | -0.275 |
| GAATACCC | -0.0827 |
| GAGCTGCA | -0.284 |
| AAGTTCGT | -0.0847 |
| AGATTAGA | 0.0499 |
| CCGTCATC | -0.199 |
| ATGATTCA | 0.127 |
| CGCGCCCC | -0.23 |
| ATGACCTA | 0.07 |
| ACTAATCT | 0.133 |
| ACACGATC | 0.00815 |
| AGGCTGGA | -0.212 |
| CATCCGCC | -0.0479 |
| GATGGACA | 0.0798 |
| CACCCATA | -0.31 |
| CAAAGACC | -0.117 |
| GAATCGGC | 0.0099 |
| GTTCAAAA | 0.0673 |
| CCAGGTTA | -0.0583 |
| ACCGGCTC | -0.122 |

| Sequence | PBM E-score |
| --- | --- |
| ACACCTCA | -0.0311 |
| CTATGATC | 0.06 |
| GACGCACA | 0.00065 |
| ATAACTAG | 0.166 |
| ACCCTGAG | -0.0731 |
| TCCGAAAA | 0.0884 |
| ACTCTCGG | 0.133 |
| ACGTGACC | -0.179 |
| GTGAGAGA | -0.0478 |
| AGGGGTGC | -0.285 |
| CATCTGAG | 0.00472 |
| ACGCAGCA | -0.19 |
| GATAAGCA | -0.00799 |
| AGGCACAC | -0.281 |
| CACTGGCC | -0.208 |
| CCATTAAA | 0.085 |
| AGAAGATA | 0.286 |
| CGTTTATA | 0.178 |
| CTCCGCAA | -0.0427 |
| CTTCCGGC | 0.0762 |
| CCTCGAGG | -0.0862 |
| CGATACTA | 0.0588 |
